Target: the molecule itself
Test: crystal structure

B1: α-actinin-2 Δ1-18, E310A/K311A (crystallisation construct, lysine methylated) (natural protein)
chain: not shown
modifications: lysine residues reductively methylated
- binding result: binds

Reference: paper PMC4259493 (Cell, 2014)
